Data: PubChem BioAssay AID463173 (ICCB-Longwood Screening Facility, Harvard Medical School, 2010)
The campaign covered roughly 52,000 compounds. About 1,700 (3.3%) were called active. Cut-off read from the data, not from the text of the source: active = survival mostly below about 52% (no sharp cut-off); inactive = mostly above about 56%. Some of the results follow.

Each molecule was assayed on Wild type (assay: growth inhibition of S. aureus wild type versus tarO mutant, primary screen, teichoic acid synthesis inhibitors, RN4220, OD600 (AID 463173)). Details: S. aureus RN4220 wild type/DeltatarO growth, OD600, 18 h, active compounds read low, screened at 18.75 µg/mL (by protocol).

SMILES	survival
O=C(c1cc(-c2ccccc2)on1)N1CCCCC1	inactive: 113%
O=C(Nc1cnc(N2CCC(N3CCCCC3)CC2)c(C(=O)O)c1)c1ccc(Br)cc1	inactive: 99%
Cc1ccc(CSc2nc3ccc(NC(=O)COc4ccc(F)cc4)cc3s2)cc1	inactive: 88%
CCn1nc(C)c(CCN(C)C(=O)Nc2cc(C)cc(C)c2)c1C	inactive: 51%
CCc1ccc(CNC(=O)Cn2c(-c3cccs3)cc3cc(F)ccc32)cc1	inactive: 136%
COc1ccccc1NC(=O)c1c(NC(=O)Cc2ccccc2)sc2c1CCC(C(C)(C)C)C2 (stereo not drawn)	inactive: 102%
COc1ccc(N2CCN(C(C)C(=O)N3CCCC3)CC2)cc1 (stereo not drawn)	inactive: 95%
COc1ccc(-n2c(=O)c3c(c4cc(OC)ccc4n3C)n(Cc3ccc(F)cc3Cl)c2=O)cc1	inactive: 80%
Nc1nonc1C(=O)NCCNCc1ccc(Cl)c(Cl)c1	inactive: 71%
Cc1cc(C)nc(-n2nc(C)c3c2NC(=O)CC3c2cc(F)ccc2F)n1 (stereo not drawn)	inactive: 83%
COc1ccccc1NC(=O)Cn1c(=O)n(Cc2ccccc2)c(=O)c2c3c(sc21)CN(C(C)=O)CC3	inactive: 84%
Cc1oc(C)c(C(N)=O)c1C(N)=O	inactive: 97%
CCn1ccc2c(OCC(=O)NCc3ccc(C)cc3)cccc2c1=O	inactive: 71%
Cn1c(=O)cc(SCC(=O)N2CCN(c3ccccc3F)CC2)c2cc(Cl)ccc21	inactive: 62%
CC(C)Sc1ncc(Cl)c(C(=O)Nc2ccc(S(=O)(=O)Nc3ncccn3)cc2)n1	inactive: 90%
CCNC(=O)C1CCCN1C(=O)OCC(C)C (stereo not drawn)	inactive: 104%
Cc1ccc(NC(=O)c2cc3c([nH]c2=O)CC(C)(C)CC3=O)c(C)c1	inactive: 67%
COc1ccc(CNC(=O)CSc2n[nH]c(-c3ccc(OC)cc3)n2)cc1	active: -6%
COc1cc(Cn2c(=O)sc3ccccc32)ccc1OCCC(C)C	active: -4%
CC(C)c1ccc2c(c1)-c1ccccc1S(=O)(=O)N2CC(=O)N1CCCCC1	inactive: 85%

SMILES	survival
Cc1cc(Cl)ccc1OCC(=O)Nc1c(C(=O)c2ccccc2)oc2ccccc12	inactive: 67%
O=C(CSc1ncc(-c2ccccc2)[nH]1)Nc1cccc(C(F)(F)F)c1	inactive: 25%
Cc1ccccc1-c1nc(CS(=O)(=O)CC(=O)Nc2cc(Cl)cc(Cl)c2)c(C)o1	inactive: 77%
Cc1ccccc1CCNC(=O)C1CCN(c2nc3ccccc3nc2C(F)(F)F)CC1	inactive: 68%
COc1cc(CN(C(=O)c2cccc(C)c2)c2ccccn2)cc(OC)c1OC	inactive: 82%
Cc1ccc(-n2c(SCC(=O)NCc3ccccc3)nc3c([nH]c4ccccc43)c2=O)cc1	inactive: 69%
CCOc1ccc(C(=O)NCCn2cc(SCC(=O)Nc3ccccc3)c3ccccc32)cc1	inactive: 98%
COC(=O)c1cc(NC(=O)c2sc3ncn(Cc4cccc(F)c4)c(=O)c3c2C)cc(C(=O)OC)c1	inactive: 73%
COc1ccccc1NC(=O)CCS(=O)(=O)c1cc2c3c(c1)CCN3C(=O)CC2	inactive: 73%
O=C(NCc1ccccc1Cl)c1cc(=O)[nH]c2ccc(S(=O)(=O)N3CCCCC3)cc12	inactive: 83%
CCC1CCCCN1C(=O)c1nn(-c2ccc(OC)cc2)c(=O)c2c1c1ccccc1n2C (stereo not drawn)	inactive: 128%
O=C(O)CN1CCCC1=O	inactive: 104%
Cc1ccc(C)c(N2CCN(C(=O)CCn3c(=O)c4cccn4c4cccnc43)CC2)c1	inactive: 68%
COc1ccccc1Nc1nc(-c2ccccc2Cl)c2cc(Br)ccc2n1	inactive: 119%
CC1=C(C(=O)Nc2ccc(Cl)cc2)C(C(C)C)n2nc(SCc3ccc(Cl)cc3)nc2N1 (stereo not drawn)	inactive: 80%
COC(=O)c1ccc[nH]c1=S	inactive: 101%
CCN(Cc1ccccc1)C(=O)CN1C(=O)COc2ccc(S(=O)(=O)N(CC)CC)cc21	inactive: 86%
O=C(NCC1CCN(Cc2cccc(Cl)c2)CC1)c1cc2ccc3cccnc3c2[nH]1	inactive: 63%
O=C(Cn1nc(C(F)(F)F)c2c1CCC2)Nc1ccc(Cl)cc1	inactive: 72%
COc1ccc(OC)c(CCNC(=O)C2=C(C)C(=O)OC23CCC(C)CC3)c1 (stereo not drawn)	inactive: 88%

SMILES	survival
Cc1cc(C)c2c(CC(=O)Nc3ccc(S(=O)(=O)Nc4ncccn4)cc3)coc2c1	inactive: 81%
CCOc1nc(NC(C)C)nc(NC(C)C)n1	inactive: 99%
CCc1cccc(C)c1NC(=O)Cn1ccn(Cc2ccc(Cl)cc2)c(=O)c1=O	inactive: 82%
COc1ccc(NC(=O)CN(C)S(=O)(=O)c2cnc[nH]2)cc1Cl	inactive: 75%
Cc1ccc(-c2[nH]c(-c3ccccc3)nc2SCC(=O)NCC2CCCO2)cc1 (stereo not drawn)	inactive: 81%
CC1CN(C(=O)C(C)Sc2nc(-c3ccccc3)cc(C(F)(F)F)n2)CC(C)O1 (stereo not drawn)	inactive: 101%
COc1ccc(-c2noc(COc3ccc(Br)cc3C)n2)cc1OC	active: 11%
c1ccc(-c2nnc(CN3CCN(c4ccccc4)CC3)o2)cc1	inactive: 83%
O=C(NCC1CCCO1)c1ccc(NC(=O)c2ncn[nH]2)cc1 (stereo not drawn)	inactive: 98%
Cc1ccc2c(c1C)NC(=O)CC2c1ccc(Cl)cc1Cl (stereo not drawn)	active: 1%
Cn1c(C(O)c2ccccc2)n[nH]c1=S (stereo not drawn)	inactive: 118%
CCc1ccc(OCC(=O)Nc2ccc(-c3nc4ncccc4o3)cc2)cc1	inactive: 81%
O=C(CN1CCC(n2nnc3cc(F)ccc32)CC1)N1CCCc2ccccc21	inactive: 103%
O=C(O)c1ccc(NC(=O)c2cn(-c3ccccc3)nc2-c2ccc(Br)cc2)cc1	inactive: 32%
O=C(CC1N=C2c3ccccc3N=C(SCc3cccc(F)c3)N2C1=O)NCc1ccc2c(c1)OCO2 (stereo not drawn)	inactive: 113%
Cc1ccc(OCC(=O)Nc2cccc(C(=O)OCc3cc(=O)n4nc(C)sc4n3)c2)cc1	inactive: 74%
Cc1ccc2c(c1)nnn2C1CCN(CC(=O)N2c3ccccc3CC2C)CC1 (stereo not drawn)	inactive: 109%
COc1cccc(CNC(=O)C(=O)Nc2ccc3nc4n(c(=O)c3c2)CCCCC4)c1	inactive: 93%
